The text below walks through data of the RNAGym collection of RNA variant scans (doi:10.7554/elife.90254).

Read counts are not given, so values of variants with three or more changes are uncertain.

B1: LINE1-mini (parent)
chain: GGCAGAGCUCAACACAGCGUGGCAAAGUGGCUGUGGCUAGACUGCC

In this series the parent is B1. Kind of series: self-cleavage, relative activity (ratio to wild type); higher = more cleavage; in vitro, sequencing; the parent is a self-cleaving ribozyme.
For the variant GGCAGAUCUCAACACAGCGUGGCAAAGCUGCUGUGGCUAGACUGCC [G7U U28C G29U], the self-cleavage worked out at 0.08.

GGCAGAUCUCAACACAGCGUAGCAAAGUGGCUGUGGCUAGUCUGCC [G7U G21A A41U]: the self-cleavage stood at 0.14.

For the variant GGCAGAUCCCAACACAGCGUGGCAAAGUGGCUGUGGCUAGAUUGCC [G7U U9C C42U], the self-cleavage stood at 0.04.

Consider GGCAGAUCUCAACACAGCGUGGCAAAGUGGCUGUUGCUAGACUGCG [G7U G35U C46G], for which the self-cleavage was determined as 0.16.

Regarding GGCAGAUCUCAACACAGCGUGUCAAAGCGGCUGUGGCUAGACAGCC [G7U G22U U28C U43A], the self-cleavage was found to be 0.36.

As for GGCAGAUCUCAACACAGCGGGGAAAAGUGGCUGUUGCUAGACUGCC [G7U U20G C23A G35U], the self-cleavage amounted to 0.11.

As to GGCAGAUCUCAACACAGCGUGCCAAAGUGGCUGUGGCUCGACUGCC [G7U G22C A39C], the self-cleavage is 0.07.

As to GGCAGAUCUCAACACAGCGUGGCAAACUGGUUGUGGCUACACAGCC [G7U G27C C31U G40C U43A], the self-cleavage came out at 0.47.

Take GGCAGAUCUCAACACAGCGUGGCAAAGUGUGUUUGGCUAGACUGUC [G7U G30U C31G G33U C45U]: the self-cleavage was 0.03.

Turning to GGCAGAUCUCAACACAGCGUGGCAAAGUGUCUGUGUCUAGACUGCU [G7U G30U G36U C46U], the self-cleavage amounted to 0.07.

For GGCAGAUCGCAACAUAGCGUGGCAAAGUGGCUGUGGCUAGACAGCC [G7U U9G C15U U43A], the self-cleavage came to 0.27.

Regarding GGCAGAUCUCAACACAUCGUGGCAAAGUGGCUGUGGCUAUACCGCC [G7U G17U G40U U43C], the self-cleavage is 0.46.

Regarding GGCAGAUCACAACACAGCGUGGGAAAGUGGCGGUGGCUAGACUGCC [G7U U9A C23G U32G], the self-cleavage stood at 0.11.

GGCAGAUCUCAACACAGCGUGUCAAAGUGGCUGUGGGUAGACUGCC [G7U G22U C37G]: the self-cleavage was 0.01.

For the variant GGCAGAUCUCAACACAGCGUUCCAAAGUGGCGGUGGCUAGACUCCC [G7U G21U G22C U32G G44C], the self-cleavage was 0.09.

Regarding GGCAGAUCUCAACACAGCGAGGCAAAGUAGCUGUGGCUAGACUGCC [G7U U20A G29A], the self-cleavage was 0.

With GGCAGAUCGCAACACAGCGUGGCAAAGUGGCUGUGGCUAGACUGUC [G7U U9G C45U], the self-cleavage came to 0.03.

Consider GGCAGAUCUCAACACAUCGUGGCAAAGGGGCUGUGGCUAGACUGCC [G7U G17U U28G], for which the self-cleavage is 0.05.

As for GGCAGAUCGCAACACAGCGUGGCAAAGUGGAUGUGGAUAGACUGCC [G7U U9G C31A C37A], the self-cleavage came out at 0.01.

As for GGCAGAUCCCAAUAGAGCCUGGCAAAGUGGCUGUGGCUAGACUGCC [G7U U9C C13U C15G G19C], the self-cleavage worked out at 0.04.

For GGCAGAUCUCAACACAGCGGGGCAAAGUGGCGGUGUCUAGAUUGCC [G7U U20G U32G G36U C42U], the self-cleavage stood at 0.01.

As for GGCAGAUCUCAACACAGCUUGGCAAAGUGGGUGUGGCCAGACUGCC [G7U G19U C31G U38C], the self-cleavage was found to be 0.03.

Consider GGCAGAUCUCAACACAGCGUGUCAAAGUGGCUGUGGCUAAACUGAC [G7U G22U G40A C45A], for which the self-cleavage came to 0.03.

Take GGCAGAUCACAACACAGCGUGGCAAAGUGUCUGUGGCUACACUGCC [G7U U9A G30U G40C]: the self-cleavage is 0.03.

In the case of GGCAGAUCACAACACAGCCUGGCAUAGUGGCUGUGGCUAGACUGCC [G7U U9A G19C A25U], the self-cleavage turned out to be 0.02.

For GGCAGAUCUCAACACAGCGUUGCAAAGUGGCUGUGGCUAGUCUGGC [G7U G21U A41U C45G], the self-cleavage stood at 0.08.

As for GGCAGAUCUCAACACAGCGUGGCAAAUUCGCUGUGGCUAGACUGCC [G7U G27U G29C], the self-cleavage amounted to 0.19.

For GGCAGAUCUCAACACAGCCUGGCAAAGUGGCUGUGGCUAAACUGCC [G7U G19C G40A], the self-cleavage was determined as 0.11.

For GGCAGAUCUCAACACAGCAUGGCAAAGUGGCUGUGGCAAGACUGCC [G7U G19A U38A], the self-cleavage came to 0.14.

GGCAGAUCUCAACACAGCGUGGCAAAGUUGCUGUGGCUAGUCUGCC [G7U G29U A41U]: the self-cleavage turned out to be 0.21.

In the case of GGCAGAUCUCAACACAGCGUUGCAAACUGGCUGUGGCUAGACUACC [G7U G21U G27C G44A], the self-cleavage was 0.03.

GGCAGAUCUCAACACAGCUUGGCAUAGUCGGUGUGGCUAGACUGCC [G7U G19U A25U G29C C31G]: the self-cleavage is 0.01.

On to GGCAGAUCGCAACACUGCGUGGCAAAGUGGCUGUGGCUAGACUGCC [G7U U9G A16U], for which the self-cleavage turned out to be 0.09.

As to GGCAGAUCUCAACACAGCCUGGGAAAGUGGCAGUGGCUAGACUGCC [G7U G19C C23G U32A], the self-cleavage is 0.03.

GGCAGAUCACAACACAGCGUGGCAAAUUGGGCGUGGCUAGACUGCA [G7U U9A G27U C31G U32C C46A]: the self-cleavage was 0.21.

In the case of GGCAGAUCUCAACACAGCGUAGCGAAGUGGCUGUGCCUAGACCGCC [G7U G21A A24G G36C U43C], the self-cleavage is 0.01.

With GGCAGAUCGCAACACAGCGUGGCAAAGUGGCUGUAGCUAGACUGCC [G7U U9G G35A], the self-cleavage was 0.03.

As for GGCAGAUCUCAACACAGCUUGGCAAUGUGGCUGUGGCUAUACUGCC [G7U G19U A26U G40U], the self-cleavage turned out to be 0.29.

As for GGCAGAUCUCAACACAGCGUGCCAUAGUGGCUGUGGCAAGACUGCC [G7U G22C A25U U38A], the self-cleavage was found to be 0.08.

As for GGCAGAUCCCACCACAGCGUGGCAAAGCGGCUUUGGAUAGACUGCC [G7U U9C A12C U28C G33U C37A], the self-cleavage is 0.01.

With GGCAGAUCUCAACACAGCGUGGCAAAGUGAUUGUGGCUAGCCUGCC [G7U G30A C31U A41C], the self-cleavage came out at 0.08.

GGCAGAUCUCAACACAGCGUGGCAAAGUAGCUGUGACUUGACUGCC [G7U G29A G36A A39U]: the self-cleavage was found to be 0.1.

On to GGCAGAUCUCAACACAGCGUGGCAAAGUGGCUGUUGCUAGACUACC [G7U G35U G44A], for which the self-cleavage amounted to 0.16.

On to GGCAGAUCUCAACACAGCGUGCCAAAAUGGCUGUGGAUAGACUGCC [G7U G22C G27A C37A], for which the self-cleavage worked out at 0.02.

For GGCAGAUCUCAACACAGCGUGCCAAAGUGGGUGUGGCUAGACUACC [G7U G22C C31G G44A], the self-cleavage amounted to 0.15.

For GGCAGAUCCCAACACAGCGUGGCAAAGUGGCUGUGGCUAUACUCCC [G7U U9C G40U G44C], the self-cleavage amounted to 0.01.

For GGCAGAUCUCAACACAGCGUGGCAAAGUCGCUGUGGCUAGAGUGCC [G7U G29C C42G], the self-cleavage amounted to 0.02.

For the variant GGCAGAUCUCAACACAGCGUGGCAAAGUGGCUGUGUUUAGACUGCC [G7U G36U C37U], the self-cleavage worked out at 0.01.

As to GGCAGAUCUCAACACAGCGUUGCAAAGUGGCUGUGGCUAAACUGCC [G7U G21U G40A], the self-cleavage was found to be 0.08.

On to GGCAGAUCUCAACACAGCGUGGCAAAGUGGCUAUGACUUGACUGCC [G7U G33A G36A A39U], for which the self-cleavage worked out at 0.05.

On to GGCAGAUCCCUACACAGCGUGGCAAAGUGGCUGUUGCUAGACUGCC [G7U U9C A11U G35U], for which the self-cleavage was 0.01.

On to GGCAGAUCUCAACACAUCGUGGCAAAGUGGCUGUGGCAAGACUGCA [G7U G17U U38A C46A], for which the self-cleavage turned out to be 0.04.

For GGCAGAUCUCAACACAGCGUGGCAAACUGGCUGUGGCAAGACUGCC [G7U G27C U38A], the self-cleavage is 0.01.

Turning to GGCAGAUCUCAACACAGCGGGGCAAAGUGGCUGUGGCAAGAUUGCC [G7U U20G U38A C42U], the self-cleavage is 0.04.

Consider GGCAGAUCUCAACACAGCGGGGCAAAGUGGCUGUGGCUUGACUGCC [G7U U20G A39U], for which the self-cleavage came out at 0.03.

For GGCAGAUCUCAACACAGCGUGGCAAAAUCGCUGUGGCUAGACAGCC [G7U G27A G29C U43A], the self-cleavage came out at 0.03.
